# In the supplement of paper PMC5919970:
# Where a name gives a salt, the structure may show the parent alone. Over roughly 2,000 compounds, “fractional viability relative to vehicle” has its median near 0.92; the lowest 2% begin near 0.11. Some of the results follow.
# Tested on: TYKNU
# Test: fractional viability relative to vehicle; TYKNU is a high-grade serous ovarian cancer line; higher = less growth inhibition
# Conditions: 72 h, genotype: OPA1 knockout (sgOPA1 #2)
# How it was run: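 TYKNU control cells or lentiCRISPRv2 knockout derivatives were plated at 500 cells per well in duplicate into drug-stamped 384-well plates holding a ~2100-compound library at 2 or 10 μM. Culture was in RPMI 1640 with 10% FBS at 37 °C in 5% CO2, with 72 h of drug treatment. Viability was measured by Cell Titer Glo luminescence, and the averaged duplicate treatment wells were normalised to duplicate control wells at the same plate position.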
SMILES,fractional viability (2uM),fractional viability (10uM)
C[C@H]1O[C@@H](Oc2c(-c3cc(O)c(O)c(O)c3)oc3cc(O)cc(O)c3c2=O)[C@@H](O)[C@@H](O)[C@@H]1O [Myricitrin],0.865,0.856
Cc1ccc2c(=O)c3cccc(CC(=O)O)c3oc2c1C [DMXAA (Vadimezan)],1.14,1.07
CCOC(=O)c1[nH]c2cc(Cl)ccc2c1C(C(=O)NC(C)(C)C)N(C=O)Cc1ccc(Cl)cc1 (stereo not drawn),0.864,0.464
CCCCN1CCCCC1C(=O)Nc1c(C)cccc1C (stereo not drawn) [Bupivacaine HCl],0.883,1.18
O=C1NCCCc2c1oc1ccc(O)cc21,1.1,1.15
COc1ccccc1OCC(O)COC(N)=O (stereo not drawn) [Methocarbamol],0.973,0.984
CCc1c(Cl)c(O)c(Cl)c(O)c1C(=O)O[C@H]1[C@H](O)[C@H](OC)[C@H](OC/C2=C\C=C\C[C@H](O)/C(C)=C/[C@H](CC)[C@@H](O[C@@H]3OC(C)(C)[C@@H](OC(=O)C(C)C)[C@H](O)[C@@H]3O)/C(C)=C/C(C)=C/C[C@@H]([C@@H](C)O)OC2=O)O[C@@H]1C [Fidaxomicin],1.09,0.7
Nc1ccn([C@@H]2CS[C@H](CO)O2)c(=O)n1 [Lamivudine],0.862,0.907
COC(=O)Nc1nc2cc([S+]([O-])c3ccccc3)ccc2[nH]1 (stereo not drawn) [Oxfendazole],0.993,0.99
N#Cc1c(NC(=O)c2cccc3ccccc23)sc2c1CCCC2 [JNK Inhibitor IX],0.428,0.386
C=CC(=O)Nc1cccc(Nc2nc(Nc3ccc(OCCOC)cc3)ncc2F)c1,0.823,0.577
CCC(=O)Nc1cccc(Oc2nc(Nc3ccc(N4CCN(C)CC4)cc3OC)ncc2Cl)c1,0.956,0.769
O=C(C[S+]([O-])Cc1ccco1)NC/C=C\COc1cc(CN2CCCCC2)ccn1 (stereo not drawn) [Lafutidine],1.1,1.05
C#CCC(Cc1cnc2nc(N)nc(N)c2n1)c1ccc(C(=O)N[C@@H](CCC(=O)O)C(=O)O)cc1 (stereo partly drawn) [Pralatrexate],0.642,0.551
O=C(c1ccccc1)c1ccc2n1CCC2C(=O)O (stereo not drawn) [Ketorolac],1.02,1.01
COc1c(N2CCNC(C)C2)c(F)cc2c(=O)c(C(=O)O)cn(C3CC3)c12 (stereo not drawn) [Gatifloxacin],1.28,1.18
CCN(CC)CCCC(C)Nc1nc(C)cc(Nc2ccc3nc(C)cc(N)c3c2)n1 (stereo not drawn),0.891,0.898
COc1ccc(S(=O)(=O)N(CCO)c2ccccc2CN(C)C/C=C/c2ccc(Cl)cc2)cc1 [KN-93 Phosphate],0.76,0.524
O=C(Nc1ccccc1Br)N[C@@H]1CCN(c2ccc(C(F)(F)F)cn2)C1,0.807,0.82
